This note sets out measurements from the supplement of paper PMC3334620.

Whole data set: some 33,000 sequences, median “E-score (-0.5 to 0.5)” near -0.043, cut for the highest 2% near 0.37. The list shows a part of the results.

For this experiment, the target named is T1, Upc2 (UniProt Q12151).
T1 sequence: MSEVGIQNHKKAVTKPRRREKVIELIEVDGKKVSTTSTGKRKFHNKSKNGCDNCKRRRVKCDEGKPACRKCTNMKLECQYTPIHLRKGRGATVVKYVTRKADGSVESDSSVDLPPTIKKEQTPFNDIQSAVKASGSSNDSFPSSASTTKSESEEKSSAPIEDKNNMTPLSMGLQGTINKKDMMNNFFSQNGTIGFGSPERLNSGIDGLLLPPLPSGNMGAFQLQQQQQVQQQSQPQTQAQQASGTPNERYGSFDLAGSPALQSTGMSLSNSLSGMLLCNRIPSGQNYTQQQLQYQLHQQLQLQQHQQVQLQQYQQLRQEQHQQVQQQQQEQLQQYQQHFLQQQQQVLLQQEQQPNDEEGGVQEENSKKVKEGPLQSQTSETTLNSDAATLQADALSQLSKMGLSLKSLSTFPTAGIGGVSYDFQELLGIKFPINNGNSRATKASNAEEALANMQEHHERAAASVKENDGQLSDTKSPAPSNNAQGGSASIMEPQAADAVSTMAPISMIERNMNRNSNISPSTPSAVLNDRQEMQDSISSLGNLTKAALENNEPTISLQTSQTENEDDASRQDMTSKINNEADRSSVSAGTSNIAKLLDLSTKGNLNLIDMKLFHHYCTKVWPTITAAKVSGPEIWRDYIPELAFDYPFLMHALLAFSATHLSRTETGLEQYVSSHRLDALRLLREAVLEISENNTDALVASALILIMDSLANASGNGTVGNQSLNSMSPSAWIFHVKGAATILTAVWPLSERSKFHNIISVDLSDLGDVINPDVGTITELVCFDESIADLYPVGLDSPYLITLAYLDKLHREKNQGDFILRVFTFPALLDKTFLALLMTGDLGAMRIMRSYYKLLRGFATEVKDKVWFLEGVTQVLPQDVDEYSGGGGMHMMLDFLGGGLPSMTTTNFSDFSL
The experiment can be described thus: PBM E-score (8-mer binding enrichment) (E-score (-0.5 to 0.5)); higher = stronger / more preferred TF binding; most listed sequences are background and not binding sites. The following applies: protein concentration: 200 nM; construct: GST-full length. Put shortly: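 Yeast transcription factors, full-length or as DNA-binding domains, were expressed with a GST tag using PURExpress in vitro transcription/translation. At about 100-200 nM they were applied to universal all-10-mer Agilent arrays, double-stranded by primer extension on fresh or once-stripped slides. Fluorescent anti-GST detected bound protein, and masliner normalised the scans. E-scores for ungapped eight-base words, pooled with reverse complements, came from the Universal PBM Analysis Suite.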
Take CCTTTAAC: the “PBM E-score” value was found to be 0.217.
The value for AATCCTTA was -0.136.
The value for CACGCTCC was -0.339; that for CAGATATA was -0.0677; that for CGAATCCG was 0.181.
Next, AAGCTCGA: 0.0415; ACTGTTAC: 0.119; CAGTGAAA: 0.0712.
As for ATGTCTGA, the “PBM E-score” value was -0.112.
For ATGTCGTG, the “PBM E-score” value is -0.0693.
As to AGTTATAA, the “PBM E-score” value is 0.0366.
For the sequence CTAATTCA, the “PBM E-score” value was -0.0938.
As for CGCATGTA, the “PBM E-score” value was 0.0289.
Next, CGTACAAG: 0.442.
The value for GGTTTGGA was -0.0119; that for CATATTAA was 0.13.
The value for ACAGCCGG was -0.127.
Regarding ACCAAGCA, the “PBM E-score” value was -0.133.
As to AGTTATGC, the “PBM E-score” value is -0.0113.
The value for ACCGCCTA was -0.133; that for ACAGCACC was -0.219; that for CCATTTTC was -0.0456.
On to CAACGTCG, for which the “PBM E-score” value is 0.192.
Turning to GACGCGGA, the “PBM E-score” value was -0.102.
In the case of ATGTGCTC, the “PBM E-score” value was determined as 0.00489.
For the sequence ATCCCATG, the “PBM E-score” value was -0.326.
The value for ATACACTC was 0.249; that for CTCAAGGC was -0.217.
Next, GTGAGGGA: -0.269.
The value for TAAGCACA was -0.032; that for GTCCTCAA was -0.1; that for AATTCTGA was -0.0388.
CGGGTCCC: the “PBM E-score” value is -0.0237.
Next, AGGAGAAC: -0.0916; CGTTGTAC: 0.271.
In the case of ATGGAGTA, the “PBM E-score” value came to 0.0154.
The value for ATCCAGCA was -0.0733; that for CCGCATAC was 0.197; that for GGTCAGCA was 0.138.
In the case of GCGTATAC, the “PBM E-score” value was found to be 0.454.
Next, GTCCTCAC: -0.129.
Regarding CTCGTCTA, the “PBM E-score” value was found to be 0.261.
The value for AAGTACAC was 0.0783; that for ATAGGCCC was -0.204.
Turning to AAGCAATA, the “PBM E-score” value is -0.025.
For the sequence AACGGCTA, the “PBM E-score” value was found to be 0.197.
Next, GGCAGAAA: 0.141; CGCTAGTC: -0.217.
For the sequence ATTCAAGA, the “PBM E-score” value is -0.102.
Consider GACGAACA, for which the “PBM E-score” value came to 0.0681.
The value for CAAAAGGA was -0.0306; that for CGCACATA was -0.0597.
The value for AGAGAGCT was -0.122.
Next, CCAGGCCG: -0.12; AGTTGGGG: -0.148.
In the case of GCGGGCCC, the “PBM E-score” value was -0.281.
As to CCCTCTTC, the “PBM E-score” value was -0.0556.
For ATTCCCAA, the “PBM E-score” value is -0.0704.
In the case of ACTGCTCA, the “PBM E-score” value was -0.00483.
Next, GGTCCTTA: -0.0347; AGATTCCG: -0.054.
Regarding GAAAACCA, the “PBM E-score” value is -0.131.
Consider ATCGCATA, for which the “PBM E-score” value is 0.318.
With ATGGGATA, the “PBM E-score” value is -0.102.
The value for TGACTCAA was -0.0228; that for ATCCAAAT was 0.0703.
Consider AGTTCCGC, for which the “PBM E-score” value is 0.0626.
For the sequence ACGAGGAT, the “PBM E-score” value is 0.355.
The value for CTCCTTAC was 0.112.
The value for AGCGTCCT was 0.0132.
Next, GTTTTTCA: -0.0628; ACATTAAC: 0.165; GGTTATAC: 0.383.
On to CACGTCTA, for which the “PBM E-score” value is -0.168.
Next, CGGTGCGC: -0.0732; CACTGCTC: -0.0808.
Next, AAGACACT: -0.0556; AGGTCTGG: -0.153.
With ATATACCC, the “PBM E-score” value is -0.0426.
Next, CGCGAGCG: 0.0722.
The value for ATGAGAAT was -0.0735.
CTATACAG: the “PBM E-score” value turned out to be 0.154.
In the case of CGCACGAG, the “PBM E-score” value was -0.0893.
In the case of AGTTCTTA, the “PBM E-score” value turned out to be 0.00646.
Next, ACACTCGG: 0.142; GCTGGGAC: -0.224.
The value for ATACACTG was 0.112; that for GACATACC was -0.152.
Next, GCACCCTA: -0.143; AATCCGTA: 0.241.
Turning to AATCTTTC, the “PBM E-score” value was -0.0762.
The value for GTATGAAC was 0.196; that for AATCACTG was -0.0215; that for AGAAGGTG was -0.0354.
